Measured values from the supplement of paper PMC12217912.
The other results are listed elsewhere or left out. Sequences were assembled here from the parent chain. Values near 0.05 are background.

B1: TEV protease; numbered along this chain (parent)
chain: MGESLFKGPRDYNPISSSICHLTNESDGHTTSLYGIGFGPFIITNKHLFRRNNGTLVVQSLHGVFKVKDTTTLQQHLVDGRDMIIIRMPKDFPPFPQKLKFREPQREERICLVTTNFQTKSMSSMVSDTSCTFPSGDGIFWKHWIQTKDGQCGSPLVSTRDGFIVGIHSASNFTNTNNYFTSVPKNFMELLTNQEAQQWVSGWRLNADSVLWGGHKVFMVKPEEPFQPVKEATQL

Variants of: B1
Test: raw area under fraction-flipped curve 0-4 h after induction (AUC4h, not background-subtracted), DNA-recorder readout of cleavage of the substrate (dimensionless); higher = more cleavage of the substrate by the protease variant
Conditions: temperature: 34 °C; time window: 0-4 h after rhamnose induction
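Further: Bxb1 expression induced with 0.2% (w/v) L-rhamnose at OD600 near 0.5, cultures sampled hourly, flipped fraction per protease–substrate barcode pair counted by paired-end Illumina sequencing.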

Variant | area with substrate ENDYFQS | area with substrate ENEYFQS | area with substrate ENFYFQS | area with substrate ENHYFQS | area with substrate ENIYFQS | area with substrate ENKYFQS | area with substrate ENPYFQS | area with substrate ENRYFQS | area with substrate ENSYFQS | area with substrate ENVYFQS | area with substrate ENGYFQS | area with substrate ENTYFQS | area with substrate ENNYFQS | area with substrate ENQYFQS | area with substrate ENMYFQS | area with substrate ENWYFQS | area with substrate ENYYFQS | area with substrate ENCYFQS
D128Y | 0.064 | 0.0689 | 0.0657 | 0.0648 | 0.134 | 0.0868 | 0.046 | 0.055 | 0.0616 | 0.0843 |  |  |  |  |  |  |  | 
D128K | 0.057 | 0.0801 | 0.0583 |  | 0.107 |  | 0.0608 | 0.0596 | 0.0663 |  | 0.0924 | 0.0712 |  |  |  |  |  | 
T72A |  | 0.0582 | 0.0593 | 0.063 | 0.0851 |  |  | 0.0535 | 0.0674 | 0.072 | 0.0589 | 0.0415 | 0.0449 | 0.0582 |  |  |  | 
K216S |  | 0.0625 | 0.0613 |  |  |  |  |  |  | 0.0606 | 0.0503 | 0.0638 |  |  | 0.0756 |  |  | 
K216R |  |  |  |  | 0.113 |  | 0.0659 |  |  |  |  |  |  |  |  |  |  | 
N24D | 0.0644 |  | 0.0495 |  |  |  | 0.0573 | 0.0638 | 0.0759 | 0.057 | 0.063 |  | 0.0597 | 0.0668 | 0.0718 | 0.0033 |  | 
S16D | 0.0627 | 0.0364 | 0.0613 | 0.0672 | 0.0913 |  |  |  | 0.0718 | 0.0615 | 0.0585 | 0.0668 | 0.0692 | 0.0601 | 0.0462 | 0.0436 |  | 
D208N | 0.0673 | 0.0598 |  |  | 0.0986 |  |  | 0.0535 |  | 0.0636 | 0.0663 |  |  |  |  |  | 0.072 | 
D208V | 0.0558 | 0.0748 | 0.0571 |  | 0.0786 |  |  | 0.0607 | 0.0669 | 0.0685 |  | 0.0635 | 0.0515 | 0.054 |  |  | 0.0578 | 
L112C | 0.0655 | 0.0657 | 0.0518 | 0.0614 | 0.0689 | 0.0795 | 0.052 |  | 0.061 |  | 0.0465 |  | 0.0631 | 0.0584 | 0.0618 |  |  | 
E224Y | 0.0536 | 0.0712 | 0.0605 | 0.0554 | 0.101 |  | 0.0778 | 0.0466 | 0.0642 | 0.0721 | 0.0679 |  |  | 0.0573 | 0.0608 |  | 0.0534 | 0.0633
V200S |  | 0.0457 |  |  |  |  |  |  |  |  |  |  |  |  |  |  |  | 
V200I | 0.0501 |  |  |  |  |  |  |  | 0.0582 | 0.0738 |  |  | 0.0624 | 0.0852 |  |  | 0.0808 | 
V200A |  | 0.0699 | 0.0785 | 0.0507 | 0.0815 |  |  |  | 0.0512 | 0.0453 |  | 0.0603 |  |  |  |  |  | 
P104F | 0.0439 | 0.0514 | 0.054 | 0.0349 | 0.0493 |  |  |  | 0.0673 |  |  | 0.0543 | 0.0798 |  |  |  |  | 
F117N | 0.0695 | 0.0609 | 0.0673 |  | 0.0956 | 0.0205 | 0.0549 | 0.065 | 0.0573 |  | 0.0565 | 0.0531 | 0.0513 | 0.0579 | 0.0741 | 0.0072 | 0.0603 | 
S32E | 0.0613 | 0.0681 | 0.0607 | 0.0617 | 0.087 | 0.0537 | 0.0757 | 0.0548 | 0.0632 | 0.0791 | 0.0253 | 0.0627 |  | 0.0508 | 0.0629 | 0.0036 | 0.0576 | 
P93S | 0.0651 |  |  |  |  | 0.0619 |  |  | 0.079 | 0.0802 |  |  | 0.0529 |  |  | 0.0815 |  | 

Variant | area with substrate ENDYFQS | area with substrate ENEYFQS | area with substrate ENFYFQS | area with substrate ENHYFQS | area with substrate ENIYFQS | area with substrate ENKYFQS | area with substrate ENPYFQS | area with substrate ENRYFQS | area with substrate ENSYFQS | area with substrate ENVYFQS | area with substrate ENGYFQS | area with substrate ENTYFQS | area with substrate ENNYFQS | area with substrate ENQYFQS | area with substrate ENMYFQS | area with substrate ENWYFQS | area with substrate ENYYFQS | area with substrate ENCYFQS
T192W |  |  |  |  | 0.0765 |  |  |  |  |  |  |  |  | 0.0638 |  |  |  | 
R160N |  | 0.0807 |  |  |  |  | 0.0522 | 0.0318 | 0.0636 |  | 0.065 | 0.0643 | 0.0718 | 0.053 |  |  |  | 
M88E |  |  |  | 0.0467 | 0.0496 |  |  | 0.0431 | 0.0328 | 0.0616 | 0.0454 |  | 0.0237 | 0.0866 |  | 0.0816 | 0.0356 | 
M88Y |  | 0.0531 | 0.0377 |  |  | 0.0412 | 0.0415 | 0.0316 | 0.0506 |  | 0.0524 | 0.0445 |  | 0.0261 | 0.0672 |  |  | 
M88D | 0.0627 |  |  |  |  |  |  |  | 0.0459 |  |  | 0.0191 |  |  |  |  |  | 
V64Q | 0.0438 |  |  | 0.0557 | 0.071 | 0.0678 | 0.0664 |  |  |  |  | 0.0554 | 0.0506 | 0.0593 |  | 0.082 | 0.0553 | 
V64R | 0.0728 | 0.0562 | 0.0749 | 0.0852 |  | 0.0609 | 0.073 | 0.0452 | 0.0544 | 0.0736 |  |  |  | 0.0557 |  | 0.0692 |  | 
V64L | 0.0529 | 0.0596 | 0.0554 | 0.0507 |  |  | 0.0347 | 0.0643 | 0.0711 | 0.0764 | 0.076 |  | 0.0679 | 0.0579 |  |  | 0.0678 | 
G80P | 0.0614 |  |  | 0.0546 |  |  | 0.0626 | 0.0681 |  | 0.0543 |  | 0.0498 |  |  |  |  |  | 
A232F |  | 0.0619 | 0.0604 | 0.0501 | 0.108 |  |  |  | 0.068 |  | 0.0675 | 0.071 | 0.0609 | 0.0548 |  | 0 |  | 
A232M | 0.0667 |  | 0.0613 | 0.06 |  |  | 0.0504 |  | 0.0826 | 0.072 |  |  | 0.0601 | 0.0665 |  |  | 0.0668 | 0.0684
A232G | 0.058 | 0.0595 |  |  | 0.106 |  | 0.057 |  | 0.0426 | 0.0816 |  | 0.065 | 0.0641 | 0.0506 | 0.0914 | 0.0616 |  | 
A232K |  | 0.0653 | 0.0635 |  |  |  |  |  | 0.0647 |  | 0.0645 |  |  | 0.0502 |  |  |  | 0.0761
C152K | 0.0633 |  |  | 0.0605 | 0.036 |  | 0.0606 |  | 0.0678 |  | 0.0801 | 0.0627 | 0.0581 | 0.0613 |  | 0.0622 |  | 
C152L | 0.0399 |  |  | 0.0647 | 0.0683 |  | 0.06 | 0.0548 | 0.0591 |  | 0.0805 | 0.055 | 0.0598 | 0.057 |  |  | 0.0539 | 
C152I | 0.052 | 0.0616 |  | 0.0561 | 0.0523 | 0.0589 |  | 0.0592 | 0.0559 | 0.069 | 0.0682 | 0.0555 | 0.0641 | 0.0659 |  | 0.06 | 0.0362 | 
W203A | 0.0687 | 0.0555 | 0.0618 |  | 0.093 |  | 0.059 | 0.0794 | 0.0595 | 0.0646 | 0.0673 | 0.0414 | 0.0667 | 0.0675 |  |  | 0.0663 | 
